9 molecules from paper PMC9911399, “Two distinct binding modes provide the RNA-binding protein RbFox with extraordinary sequence specificity” can be followed below.

The labels stand for the following.
B1: AGUACUC (DNA:RNA)
RNA: GGGAGACCGGAAUUCAGAUUGUCCAGUACUCUUAAAUCCCGUCGUAGCCACCA
DNA 1: CAATCTGAATTCCGGTCTCCC
DNA 2: TGGTGGCTACGACGGGATT
B2: CACCCCG (DNA:RNA)
RNA: B1 RNA with A25C, G26A, U27C, A28C, U30C, C31G
DNA 1: CAATCTGAATTCCGGTCTCCC
DNA 2: TGGTGGCTACGACGGGATT
B3: CUGCCAA (DNA:RNA)
RNA: B1 RNA with A25C, G26U, U27G, A28C, U30A, C31A
DNA 1: CAATCTGAATTCCGGTCTCCC
DNA 2: TGGTGGCTACGACGGGATT
B4: CCAGGAA (DNA:RNA)
RNA: GGGAGACCGGAAUUCAGAUUGUCCCCAGGAAUUAAAUCCCGUCGUAGCCACCA
DNA 1: CAATCTGAATTCCGGTCTCCC
DNA 2: TGGTGGCTACGACGGGATT
B5: GACUAGA (DNA:RNA)
RNA: B4 RNA with C25G, C26A, A27C, G28U, G29A, A30G
DNA 1: CAATCTGAATTCCGGTCTCCC
DNA 2: TGGTGGCTACGACGGGATT
B6: AAAACUC (DNA:RNA)
RNA: B1 RNA with G26A, U27A
DNA 1: CAATCTGAATTCCGGTCTCCC
DNA 2: TGGTGGCTACGACGGGATT
B7: GGUAGCC (DNA:RNA)
RNA: B1 RNA with A25G, C29G, U30C
DNA 1: CAATCTGAATTCCGGTCTCCC
DNA 2: TGGTGGCTACGACGGGATT
B8: CGCUAGC (DNA:RNA)
RNA: B1 RNA with A25C, U27C, A28U, C29A, U30G
DNA 1: CAATCTGAATTCCGGTCTCCC
DNA 2: TGGTGGCTACGACGGGATT
B9: AUACGGC (DNA:RNA)
RNA: B1 RNA with G26U, U27A, A28C, C29G, U30G
DNA 1: CAATCTGAATTCCGGTCTCCC
DNA 2: TGGTGGCTACGACGGGATT

Changes are numbered by the printed parent chain; changes in the protein carry UniProt numbers. The list shows a part of the results.

This assay has as its target T1, RBFOX1 RRM (Homo sapiens, UniProt Q9NWB1 109-208).
T1 sequence: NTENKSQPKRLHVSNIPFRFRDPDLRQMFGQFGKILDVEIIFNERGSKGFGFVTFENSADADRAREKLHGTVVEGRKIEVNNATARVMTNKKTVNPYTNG
The assay is described as follows: EMSA; HiTS-Eq, 1 nM pool, 10 min; buffer printed only for the single-RNA assays: 10 mM Tris pH 7.5, 150 mM NaCl, 3.4 mM EDTA, 0.001% NP-40, 30 C. As to conditions: tags: His6 N-terminal (pET28a); label: 5' 32P. A digest of the protocol: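 Purified wild-type or mutant RbFox RRM at increasing concentrations was equilibrated with 1 nM of 5′-radiolabelled RNA carrying 7 randomized nucleotides for 10 min in 50 µL. Unbound RNA was separated by 8% native PAGE and sequenced. Relative association constants came from read-count changes of each RNA species compared with the control reaction, normalised to the cognate motif.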
For orientation: A gel shift assay detects complexes by their altered migration in electrophoresis.
In the case of B1, the binding signal was 0.0053 KA relative to UGCAUGU. As for B2, the figure is 0.002 KA relative to UGCAUGU. With B3, the binding signal was 0.0111 KA relative to UGCAUGU.

On to B4, for which the binding signal was 0.011 KA relative to UGCAUGU. As for B5, the figure is 0.0143 KA relative to UGCAUGU. The figure for B6 is 0.00166 KA relative to UGCAUGU. As for B7, the figure is 0.00884 KA relative to UGCAUGU. With B8, the binding signal is 0.0135 KA relative to UGCAUGU.

With B9, the binding signal was 0.00749 KA relative to UGCAUGU.
